Reference: the supplement of paper PMC10126150
Sequences with one replicate were seen in a single cluster, so their values are uncertain.

System: ATP
Assay: switch fluorescence ratio, 500 uM ATP over buffer (Cy3 cluster intensity, sum of 5 cycles each) (fold (ratio)); higher = stronger signal-on switching upon ATP binding; sequences stand for … in TCGTCGGCAGCGTCAGATGTGTATAAGAGACAGTTTTTTTTTTTTTTTTTTTTTTTTT…TC
Conditions: aptamer strand: ATP DNA aptamer (quencher-CACCTGGGGGAGTATTGCGGAGGAAGG + anchor), 100 nM annealed; ATP concentration: 500 uM; one replicate
Summary of the method: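 After annealing to 100 nM quencher-labelled ATP aptamer, Cy3-labelled switching-strand clusters on a modified Illumina MiSeq flow-cell were imaged in selection buffer. A second image followed after 15 min with 500 uM ATP at 22 °C, and five such buffer/ATP cycles were done, each separated by NaOH stripping and re-annealing. The fluorescence ratio, averaged per switch-domain sequence, is summed target-cycle over summed buffer-cycle Cy3 intensity per cluster, with clusters outside 100-1000 RFU excluded.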
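Also: ATP exposure 15 min at 22 °C before imaging.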

Q: Which switch fluorescence ratio does the source give for CAGGGAGTTT here?
A: Its switch fluorescence ratio is 1.01.

Q: With TGGTTATACG as the sequence, how does the switch fluorescence ratio read?
A: Its switch fluorescence ratio is 0.975.

Q: Which switch fluorescence ratio does the source give for AGATGGAATA here?
A: Its switch fluorescence ratio is 1.01.

Q: How did the switch fluorescence ratio turn out when CCGTCAGTAT was run?
A: Its switch fluorescence ratio is 3.37.

Q: Which switch fluorescence ratio does the source give for ACGGCGGAA here?
A: Its switch fluorescence ratio is 1.08.

Q: For CAGGCTAGTC, which switch fluorescence ratio is on record?
A: The switch fluorescence ratio was 1.

Q: With TTGCACAAC as the sequence, how does the switch fluorescence ratio read?
A: Its switch fluorescence ratio is 1.1.

Q: How did the switch fluorescence ratio turn out when GGTAAGGCCA was run?
A: The switch fluorescence ratio was 1.02.

Q: GGATTGGACC was tested. Which switch fluorescence ratio did it give?
A: The switch fluorescence ratio was 1.03.

Q: Which switch fluorescence ratio does the source give for GATGTTCGGG here?
A: Its switch fluorescence ratio is 1.02.

Q: AAGAAGCGGC was tested. Which switch fluorescence ratio did it give?
A: Its switch fluorescence ratio is 1.04.

Q: With GGTTGTGCAG as the sequence, how does the switch fluorescence ratio read?
A: The switch fluorescence ratio was 0.973.

Q: Which switch fluorescence ratio does the source give for TGTGGGATT here?
A: The switch fluorescence ratio was 0.964.

Q: For GACTTTACGA, which switch fluorescence ratio is on record?
A: The switch fluorescence ratio was 1.22.

Q: Which switch fluorescence ratio does the source give for GATGCAATTG here?
A: The switch fluorescence ratio was 1.38.

Q: How did the switch fluorescence ratio turn out when TGCCACTTAA was run?
A: Its switch fluorescence ratio is 1.07.

Q: How did the switch fluorescence ratio turn out when GCAGGCAACA was run?
A: Its switch fluorescence ratio is 1.

Q: For GTGGCTATCC, which switch fluorescence ratio is on record?
A: The switch fluorescence ratio was 1.02.

Q: CAGCGCTCGA was tested. Which switch fluorescence ratio did it give?
A: Its switch fluorescence ratio is 0.992.

Q: For ACGACATGCG, which switch fluorescence ratio is on record?
A: Its switch fluorescence ratio is 1.

Q: For CAGGTGCAT, which switch fluorescence ratio is on record?
A: The switch fluorescence ratio was 2.04.

Q: With AGCATAAGCT as the sequence, how does the switch fluorescence ratio read?
A: The switch fluorescence ratio was 1.01.

Q: With CGGGCCAGGG as the sequence, how does the switch fluorescence ratio read?
A: The switch fluorescence ratio was 1.01.

Q: AAACTCGAGT was tested. Which switch fluorescence ratio did it give?
A: Its switch fluorescence ratio is 1.02.

Q: For CCCATGTGAC, which switch fluorescence ratio is on record?
A: The switch fluorescence ratio was 1.26.

Q: With GATGGGATGA as the sequence, how does the switch fluorescence ratio read?
A: Its switch fluorescence ratio is 0.986.

Q: Which switch fluorescence ratio does the source give for ATAGTTTGCA here?
A: Its switch fluorescence ratio is 0.971.

Q: For TGGCTGGCTT, which switch fluorescence ratio is on record?
A: Its switch fluorescence ratio is 1.02.

Q: Which switch fluorescence ratio does the source give for TAGTCAAAAC here?
A: Its switch fluorescence ratio is 1.16.

Q: For AGGTGAATTT, which switch fluorescence ratio is on record?
A: The switch fluorescence ratio was 1.05.

Q: CAGTGATGAA was tested. Which switch fluorescence ratio did it give?
A: The switch fluorescence ratio was 0.999.

Q: How did the switch fluorescence ratio turn out when GCCGGGTACC was run?
A: The switch fluorescence ratio was 0.978.

Q: How did the switch fluorescence ratio turn out when AGTTGCTAA was run?
A: The switch fluorescence ratio was 0.982.

Q: With AGCAGCCGGG as the sequence, how does the switch fluorescence ratio read?
A: The switch fluorescence ratio was 1.06.

Q: With AAAGCACCGG as the sequence, how does the switch fluorescence ratio read?
A: Its switch fluorescence ratio is 1.14.

Q: For CATGATATCA, which switch fluorescence ratio is on record?
A: Its switch fluorescence ratio is 1.01.

Q: For CGAAATGGTA, which switch fluorescence ratio is on record?
A: Its switch fluorescence ratio is 0.94.

Q: For TATAAGTGCT, which switch fluorescence ratio is on record?
A: The switch fluorescence ratio was 0.985.

Q: Which switch fluorescence ratio does the source give for ACCCAACCTG here?
A: The switch fluorescence ratio was 1.14.

Q: TTATAGGAGT was tested. Which switch fluorescence ratio did it give?
A: The switch fluorescence ratio was 0.998.

Q: For TTCACGCAAC, which switch fluorescence ratio is on record?
A: Its switch fluorescence ratio is 2.08.

Q: Which switch fluorescence ratio does the source give for CTAACAGGGC here?
A: Its switch fluorescence ratio is 1.09.

Q: How did the switch fluorescence ratio turn out when ACTCACGATT was run?
A: Its switch fluorescence ratio is 1.41.

Q: How did the switch fluorescence ratio turn out when TTATCGTTTT was run?
A: Its switch fluorescence ratio is 1.01.

Q: For AGAAGTAATT, which switch fluorescence ratio is on record?
A: Its switch fluorescence ratio is 1.01.

Q: GGTAAATATA was tested. Which switch fluorescence ratio did it give?
A: Its switch fluorescence ratio is 1.03.

Q: For AATAATTTGC, which switch fluorescence ratio is on record?
A: The switch fluorescence ratio was 0.99.

Q: With CGCCGGTGTG as the sequence, how does the switch fluorescence ratio read?
A: The switch fluorescence ratio was 1.04.

Q: Which switch fluorescence ratio does the source give for AGTACGCTCT here?
A: Its switch fluorescence ratio is 0.971.

Q: With AAGTCCGCGG as the sequence, how does the switch fluorescence ratio read?
A: The switch fluorescence ratio was 0.996.

Q: How did the switch fluorescence ratio turn out when AGGCAGTTGT was run?
A: The switch fluorescence ratio was 0.978.

Q: How did the switch fluorescence ratio turn out when GTGACAGTGG was run?
A: Its switch fluorescence ratio is 0.99.

Q: For GCTGCGTGA, which switch fluorescence ratio is on record?
A: Its switch fluorescence ratio is 1.16.

Q: TGAAATCACA was tested. Which switch fluorescence ratio did it give?
A: Its switch fluorescence ratio is 1.

Q: How did the switch fluorescence ratio turn out when CGACGTTGTG was run?
A: Its switch fluorescence ratio is 1.03.

Q: With ATGCAACGTT as the sequence, how does the switch fluorescence ratio read?
A: The switch fluorescence ratio was 1.02.

Q: For AGAGTACGAT, which switch fluorescence ratio is on record?
A: Its switch fluorescence ratio is 1.03.

Q: Which switch fluorescence ratio does the source give for TTATTCAAG here?
A: The switch fluorescence ratio was 0.998.

Q: With TTGTCCGGGT as the sequence, how does the switch fluorescence ratio read?
A: Its switch fluorescence ratio is 1.04.

Q: How did the switch fluorescence ratio turn out when ACATATTGCT was run?
A: Its switch fluorescence ratio is 1.06.

Q: How did the switch fluorescence ratio turn out when GCTGGGTTAA was run?
A: The switch fluorescence ratio was 0.968.

Q: Which switch fluorescence ratio does the source give for GGGCTGATAT here?
A: The switch fluorescence ratio was 1.18.

Q: Which switch fluorescence ratio does the source give for AACCTGGGTG here?
A: The switch fluorescence ratio was 1.81.

Q: With TTTTATCAGC as the sequence, how does the switch fluorescence ratio read?
A: Its switch fluorescence ratio is 1.05.

Q: How did the switch fluorescence ratio turn out when ATTGTATTAA was run?
A: Its switch fluorescence ratio is 0.979.

Q: TGAGGCCCGA was tested. Which switch fluorescence ratio did it give?
A: Its switch fluorescence ratio is 1.06.

Q: How did the switch fluorescence ratio turn out when TTATTGATCG was run?
A: The switch fluorescence ratio was 0.976.

Q: With AGATCTCGCT as the sequence, how does the switch fluorescence ratio read?
A: The switch fluorescence ratio was 0.981.

Q: CAGTCCAACA was tested. Which switch fluorescence ratio did it give?
A: The switch fluorescence ratio was 1.01.

Q: Which switch fluorescence ratio does the source give for CGTGCAGCCC here?
A: Its switch fluorescence ratio is 1.07.

Q: TGGGTAGG was tested. Which switch fluorescence ratio did it give?
A: The switch fluorescence ratio was 1.04.

Q: How did the switch fluorescence ratio turn out when ACTGGAAGGC was run?
A: The switch fluorescence ratio was 1.1.

Q: How did the switch fluorescence ratio turn out when TAGCGTC was run?
A: Its switch fluorescence ratio is 0.958.

Q: With GTCAATTCGG as the sequence, how does the switch fluorescence ratio read?
A: The switch fluorescence ratio was 0.978.

Q: With TCTAATATCT as the sequence, how does the switch fluorescence ratio read?
A: Its switch fluorescence ratio is 1.02.

Q: How did the switch fluorescence ratio turn out when ACACTTTCAT was run?
A: The switch fluorescence ratio was 0.999.

Q: Which switch fluorescence ratio does the source give for TCACGGGCCT here?
A: The switch fluorescence ratio was 0.999.

Q: Which switch fluorescence ratio does the source give for TCGTTGTGC here?
A: The switch fluorescence ratio was 1.06.

Q: How did the switch fluorescence ratio turn out when TTTAGTCTTG was run?
A: The switch fluorescence ratio was 0.936.

Q: Which switch fluorescence ratio does the source give for GCGTACGGTT here?
A: Its switch fluorescence ratio is 0.996.

Q: With CTGCACTGTT as the sequence, how does the switch fluorescence ratio read?
A: The switch fluorescence ratio was 0.975.

Q: For GGTCTGAGGT, which switch fluorescence ratio is on record?
A: The switch fluorescence ratio was 0.928.

Q: For AATGTGCAAG, which switch fluorescence ratio is on record?
A: Its switch fluorescence ratio is 0.981.

Q: TGGGGTCATC was tested. Which switch fluorescence ratio did it give?
A: Its switch fluorescence ratio is 0.989.

Q: With GTGTCCAGTG as the sequence, how does the switch fluorescence ratio read?
A: The switch fluorescence ratio was 1.1.

Q: How did the switch fluorescence ratio turn out when GATTTAAGGA was run?
A: The switch fluorescence ratio was 1.03.

Q: With CGTAACAGAT as the sequence, how does the switch fluorescence ratio read?
A: The switch fluorescence ratio was 0.982.

Q: With AGTCCACTTT as the sequence, how does the switch fluorescence ratio read?
A: Its switch fluorescence ratio is 0.989.

Q: Which switch fluorescence ratio does the source give for ATAGCTTGTT here?
A: Its switch fluorescence ratio is 0.985.

Q: For TAGTAACGTT, which switch fluorescence ratio is on record?
A: Its switch fluorescence ratio is 0.992.

Q: Which switch fluorescence ratio does the source give for TATCGGGTAC here?
A: The switch fluorescence ratio was 1.15.

Q: How did the switch fluorescence ratio turn out when ATCCACGG was run?
A: The switch fluorescence ratio was 1.03.

Q: For CTCGAAAAGC, which switch fluorescence ratio is on record?
A: The switch fluorescence ratio was 1.09.

Q: ACTAGAGTAT was tested. Which switch fluorescence ratio did it give?
A: Its switch fluorescence ratio is 1.04.

Q: TGGACAAAGC was tested. Which switch fluorescence ratio did it give?
A: The switch fluorescence ratio was 0.933.

Q: With TTAAGGGACT as the sequence, how does the switch fluorescence ratio read?
A: Its switch fluorescence ratio is 0.991.

Q: For TACTGAGACT, which switch fluorescence ratio is on record?
A: Its switch fluorescence ratio is 0.984.

Q: TCCATCTCAT was tested. Which switch fluorescence ratio did it give?
A: The switch fluorescence ratio was 1.02.

Q: How did the switch fluorescence ratio turn out when GTCGAATAGT was run?
A: The switch fluorescence ratio was 1.

Q: For GCAGGCCATT, which switch fluorescence ratio is on record?
A: Its switch fluorescence ratio is 1.19.

Q: With TGCTTTAGCT as the sequence, how does the switch fluorescence ratio read?
A: Its switch fluorescence ratio is 0.997.
